Laboratory results published in PubChem BioAssay AID686978 (National Center for Advancing Translational Sciences (NCATS), 2013).
Values joined by “and” are separate entries in the source; they are usually repeats but may differ in a detail not shown here. Equal entries are not always repeated. Hit rate of the full screen: of about 420,000 compounds, about 64,000 (15%) were called active. Inconclusive means that the source gave no clear call. Such entries were picked first, then a sample of the others. Calls come from the whole dose curve; as a rule, active = well fitted inhibition curve with a large enough effect; inconclusive = small, poorly fitted or top-dose-only effect; inactive = flat fitted curve, though single readings scatter. Where the call is inconclusive, the potency comes from a doubtful curve fit.

Test: qHTS for Inhibitors of human tyrosyl-DNA phosphodiesterase 1 (TDP1): qHTS in cells in absence of CPT; note: nearly all actives have a fitted effect of over 55% in size
Conditions: DT40 Tdp1-/- hTDP1 cells, no CPT, ATP luminescence, 48 h; activity change, negative = growth inhibition: at 46.2 µM (top of the series)
How it was run: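 Growth of hTDP1-complemented DT40 Tdp1-knockout cells is measured by ATP luminescence after at least 48 hr compound exposure at 37 °C, with DMSO substituting for the 20 nM CPT used in the parallel screen.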
% is set by controls: 0 for no effect and ±100 for the full control effect; potency is the fitted concentration of half-maximal effect; tags give direction and shape of the fitted curve.

Row | Structure (SMILES) | activity change, negative = growth inhibition | Potency
1 | Cc1cccc(-c2noc(-c3ccc(NCc4ccccc4)c([N+](=O)[O-])c3)n2)c1 | inactive: -5.34% | –
2 | CC(CCc1ccccc1)NC(=O)c1cnc(Cl)c(Cl)c1 (stereo not drawn) | – | inconclusive: 29.1 µM [inhibitor, single point]
3 | CS(=O)(=O)NCCn1ccc2ccccc21 | – | inconclusive: 23.1 µM [inhibitor, single point]
4 | CCOc1ccc(CCNC(=O)c2cc3sccc3n2CC)cc1OCC | – | active: 6.51 µM and active: 5.8 µM
5 | Cc1ccccc1N1CC(=O)Nc2c(oc3nc(-c4ccccc4)cc(C)c23)C1=O | – | inconclusive: 23.1 µM [inhibitor, partial curve]
6 | Fc1ccc(CSc2nncn3c2cc2occc23)c(Cl)c1 | – | inconclusive: 29.1 µM [inhibitor, single point]
7 | CCOC(=O)N(C)c1c(CC)nc2c(OCc3ccc(Cl)cc3Cl)cccn12 | – | active: 23.1 µM
8 | Cc1cc(C)c2oc(-c3ccc(NC(=O)COc4ccccc4C)cc3)nc2c1 | – | inconclusive: 18.4 µM [inhibitor, single point]
9 | Cc1nc2c(-c3ccc(F)cc3)c(C)nn2c(N2CCOCC2)c1C | – | inconclusive: 29.1 µM [inhibitor, single point]
10 | CN(c1ccc(C(=O)NCCSC(C)(C)C)cc1)S(=O)(=O)c1ccccc1 | – | inconclusive: 20.6 µM [inhibitor, partial curve]
11 | O=C(/C=C/c1cccnc1)c1ccc(F)c(F)c1 | – | active: 16.4 µM
12 | Cc1onc(-c2ccccc2)c1CNC(=O)Nc1cccc(Cl)c1 | – | inconclusive: 16.4 µM [inhibitor, single point]
13 | COc1ccc(NC(=O)COC(=O)c2ccc(O)cc2)c([N+](=O)[O-])c1 | inactive: -25.1% | –
14 | O=C(Nc1ccccc1Oc1ccccc1)C1=COCCO1 | inactive: -6.13% | –
15 | COc1ccc(Cn2c(-c3ccc(OC)cc3)n[nH]c2=S)cc1 | inactive: -22.5% | –
16 | CCc1nc2ccc(C(=O)N3CCN(c4cc(C)ccc4C)CC3)cc2nc1CC | – | inconclusive: 20.6 µM [inhibitor, single point] and inconclusive: 29.1 µM [inhibitor, single point]
17 | N#Cc1c(N)n(CCOC(=O)c2cccc([N+](=O)[O-])c2)c2nc3ccccc3nc12 | – | active: 10 µM
18 | CC1CCN(C(=O)c2ccc3c(c2)NC(=O)CN3)CC1 | – | inconclusive: 18.4 µM [inhibitor, single point]
19 | Cc1cc(C)c(C#N)c(SCC(=O)CC(=O)OC(C)C)n1 | inactive: 3.78% | –
20 | CCCCc1cc2c(cn1)=C(OC(=O)c1cnc3ccccc3n1)C(C)(OC(=O)CC)C(=O)C=2 (stereo not drawn) | inactive: 2.78% | –
21 | CC(=O)NCCNC(=O)c1ccc(Sc2ccccc2)c([N+](=O)[O-])c1 | inactive: -19% | –
22 | CC1CCN(C(=O)c2ccc(S(=O)(=O)Cc3cccc(F)c3)c([N+](=O)[O-])c2)CC1 | – | inconclusive: 23.1 µM [inhibitor, single point]

Row | Structure (SMILES) | activity change, negative = growth inhibition | Potency
23 | CC1=C(C(=O)NCc2ccccc2)C(c2cc(Br)cc(Br)c2OC(C)C)NC(=O)N1 (stereo not drawn) | – | inconclusive: 25.9 µM [inhibitor, single point]
24 | O=C(COC(=O)c1cccnc1Nc1cccc(C(F)(F)F)c1)NCCN1C(=O)CSC1=O | – | inconclusive: 23.1 µM [inhibitor, single point]
25 | CCOC(=O)C1NN=C(C(=O)c2ccccc2)C1c1ccc(OC)cc1 (stereo not drawn) | – | inconclusive: 16.4 µM [inhibitor, single point]
26 | CC(C)=CCc1c(O)ccc(C2COc3c(CC=C(C)C)c(O)cc(O)c3C2=O)c1O (stereo not drawn) | – | inconclusive: 25.9 µM [inhibitor, partial curve]
27 | CC[C@H](C)[C@@H](C(=O)NCCCCCCCCCCC(=O)N1CCNCC1)n1cc(CCCCN=C(N)N)nn1 | – | inconclusive: 20.6 µM [inhibitor, partial curve]
28 | COCCSc1ccccc1C(=O)Nc1ccc(Cl)cc1 | inconclusive: -34.9% [inhibitor] | –
29 | COc1ccc(CCNC(=O)c2cn3ccc(C)cc3n2)cc1OC | – | active: 16.4 µM
30 | COc1ccc(Nc2nc3ccc(C)cn3c(=O)c2/C=N/O)cc1 | – | active: 6.51 µM
31 | CN(C)S(=O)(=O)c1ccc(C(=O)NCC(=O)Nc2ccc(F)c(F)c2)cc1 | inactive: 18.9% | –
32 | CCOC(=O)C1CCCN(C(=O)CCNS(=O)(=O)c2ccc3c(c2)CCC(=O)N3)C1 (stereo not drawn) | – | inconclusive: 18.4 µM [inhibitor, single point]
33 | CCn1cc(C(=O)NCCN(CC(C)C)CC(C)C)c(=O)c2cc(S(=O)(=O)N(C)C3CCCCC3)ccc21 | – | inconclusive: 29.1 µM [inhibitor, single point]
34 | COc1ccc2cc3cc(C(=O)N4CCN(c5cccc(C(F)(F)F)c5)CC4)sc3nc2c1 | – | inconclusive: 16.4 µM [inhibitor, partial curve]
35 | COc1cc([N+](=O)[O-])ccc1NC(=O)N1CCC2(CC1)Nc1ccccc1-n1cccc12 | – | inconclusive: 29.1 µM [inhibitor, single point]
36 | COCCNC(=O)c1cc2c(=O)n3cccc(C)c3nc2n(Cc2ccncc2)c1=N | – | inconclusive: 16.4 µM [inhibitor, single point]
37 | Nc1c(C(=O)NCc2ccco2)c2nc3ccccc3nc2n1CCc1ccccc1F | – | inconclusive: 23.1 µM [inhibitor, single point]
38 | Cc1cc2oc(=O)cc(CN3CCCCC3C)c2cc1C(C)C (stereo not drawn) | – | inconclusive: 18.4 µM [inhibitor, single point]
39 | COc1ccc(-c2nc3sc(CCNC(=O)C(=O)Nc4cc(F)ccc4F)c(C)n3n2)cc1 | inactive: -0.991% | –
40 | Cc1ccc(N/N=C/c2c(C)c(C#N)c(=O)n(C)c2O)cc1C | – | inconclusive: 29.1 µM [inhibitor, single point]
41 | CCCc1cc(C(=O)Nc2cc(OC)c(Cl)cc2OC)no1 | – | inconclusive: 29.1 µM [inhibitor, single point]
42 | CCNc1ncc2ncc(=O)n(Cc3ccc(F)cc3)c2n1 | – | inconclusive: 23.1 µM [inhibitor, partial curve, poor fit]
43 | O=C(NCCS(=O)(=O)N1CCN(c2ccccc2)CC1)C1CCCC1 | – | inconclusive: 25.9 µM [inhibitor, single point]
